Laboratory results reported in patent US20240018255A1 (QURE BIOTECHNOLOGY SHANGHAI, published 2024).

Target: T1, human SIRPα naturally expressed on human renal clear cell adenocarcinoma 786-O cells (human, UniProt P78324 31-504)
T1 construct: whole, on cells
Assay: FACS on 786-O cells, PE-anti human FC secondary, MFI; unit from the axis Log[Abs,nM]
Method: Blocking: the cells were resuspended with 2% FBS and were seeded into 96-well U bottom plate with 2E5/well, 200 μl/well, then subjected to ice bath for 1 h. Centrifugation was performed at 300 g for 3 min, and the supernatant was discarded. Antibody incubation: 10 μg/ml antibodies for incubation were diluted at 1:3, 100 μl/well, and subjected to ice bath for 1 h. Centrifugation was performed, and the supernatant was discarded. Pre-cooled PBS was added at 200 μl/well, centrifuged at 300 g for 5 min to discard supernatant, which was repeated twice. Secondary antibody: PE-anti human FC (1:200) 50 μl/well was subjected to ice bath for 0.5h. Centrifugation was performed and the supernatant was discarded. Pre-cooled PBS was added at 200 μl/well, centrifuged at 300 g for 5 min to discard supernatant, which was repeated 3 times. The mean fluorescence values were read on FACS.

T1 sequence (P78324 31-504): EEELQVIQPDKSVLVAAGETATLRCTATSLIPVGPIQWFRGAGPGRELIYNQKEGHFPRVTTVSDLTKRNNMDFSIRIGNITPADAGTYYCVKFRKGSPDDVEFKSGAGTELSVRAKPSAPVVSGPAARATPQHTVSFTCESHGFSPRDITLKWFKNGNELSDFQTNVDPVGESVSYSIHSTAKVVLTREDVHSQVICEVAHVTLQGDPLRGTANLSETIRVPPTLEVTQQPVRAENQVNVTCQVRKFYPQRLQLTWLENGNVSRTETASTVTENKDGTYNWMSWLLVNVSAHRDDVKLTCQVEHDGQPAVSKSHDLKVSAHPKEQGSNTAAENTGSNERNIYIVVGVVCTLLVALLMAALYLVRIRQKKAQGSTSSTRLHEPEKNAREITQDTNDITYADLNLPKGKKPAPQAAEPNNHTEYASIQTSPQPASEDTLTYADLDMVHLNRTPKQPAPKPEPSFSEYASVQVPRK

B1: QP163245 (anti-SIRPα chimeric antibody, variable regions of 71C10, human IgG4/kappa) (antibody)
light: DIVLTQSPASLAVSLGQRATISCRASKSVSSSGYNYIFWYQQKPGQPPKLLIYLASNLDSGVPARFSGSGSGTDFTLNIHPVEEEDAATYYCQHSRELPTFGGGTKLEIKRTVAAPSVFIFPPSDEQLKSGTASVVCLLNNFYPREAKVQWKVDNALQSGNSQESVTEQDSKDSTYSLSSTLTLSKADYEKHKVYACEVTHQGLSSPVTKSFNRGEC
heavy: QVQLQQPGTELVRPGASVKLSCKASGYTFTNYWINWVKQRPGQGLEWIAMIDPSDSETHYNQIFKDKATLTVDKSSNTAYMQLSSLTSGDSAVYYCAMDYGSLYAMDYWGRGTSVTVSSASTKGPSVFPLAPCSRSTSESTAALGCLVKDYFPEPVTVSWNSGALTSGVHTFPAVLQSSGLYSLSSVVTVPSSSLGTKTYTCNVDHKPSNTKVDKRV[not shown - human IgG4 Fc with S228P (EU numbers)]
  EC50: 179 pM
